Test results from paper PMC6919601, “Identification of Plasmodium dipeptidyl aminopeptidase allosteric inhibitors by high throughput screening” (PLoS ONE, 2019).
Several values for one entry are separate records, joined by “and”; a condition that tells them apart may be missing. Equal entries are not always repeated. Among all 110,000 compounds or so, about 230 (0.21%) showed an effect of 50% or more. The list shows a part of the results.

These molecules were tested against DPAP1 (Plasmodium falciparum, UniProt Q8IIJ9) (assay: primary screen, percent inhibition; read by cleavage of a fluorogenic dipeptide substrate; higher = more effect of the substance).
DPAP1, sequence (Q8IIJ9 whole entry, looked up): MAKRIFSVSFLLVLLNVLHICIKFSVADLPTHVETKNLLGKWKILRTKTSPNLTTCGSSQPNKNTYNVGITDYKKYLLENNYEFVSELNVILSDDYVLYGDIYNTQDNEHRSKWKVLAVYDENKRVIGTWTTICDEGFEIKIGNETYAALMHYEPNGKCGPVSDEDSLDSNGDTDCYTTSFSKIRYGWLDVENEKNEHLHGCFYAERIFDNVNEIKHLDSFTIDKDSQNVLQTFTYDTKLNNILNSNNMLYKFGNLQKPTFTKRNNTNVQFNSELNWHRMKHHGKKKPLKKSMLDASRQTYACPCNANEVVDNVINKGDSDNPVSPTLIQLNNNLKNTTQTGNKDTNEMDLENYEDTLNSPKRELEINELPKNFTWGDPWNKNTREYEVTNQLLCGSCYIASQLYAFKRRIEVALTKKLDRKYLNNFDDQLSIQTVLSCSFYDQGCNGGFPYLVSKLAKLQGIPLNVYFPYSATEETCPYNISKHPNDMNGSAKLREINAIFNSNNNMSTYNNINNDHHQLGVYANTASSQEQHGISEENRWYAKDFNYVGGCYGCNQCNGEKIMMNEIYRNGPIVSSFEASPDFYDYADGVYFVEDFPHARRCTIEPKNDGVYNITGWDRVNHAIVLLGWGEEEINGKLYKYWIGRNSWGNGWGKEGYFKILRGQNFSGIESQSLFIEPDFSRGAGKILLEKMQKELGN
Parameters: species or system P. falciparum D10 trophozoite lysates; single well
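Also: 30 min substrate incubation versus DMSO and 10 µM JCP410 controls.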

Compound	% Inhibition @ 10 uM
COc1ccc(CNc2nc(-c3ccco3)nn2S(=O)(=O)c2ccc(C)cc2)cc1	-1.47%
CN(C)CCCNC(=O)c1cc(-c2ccc(Cl)s2)nc2ccccc12	-2.83%
COc1cccc(C2(O)CC(C(F)(F)F)=NN2C(=O)c2cccnc2)c1 (stereo not drawn)	13.7%
O=C1NC(=S)N(c2ccc(Cl)cc2)C(=O)/C1=C/c1c[nH]c2ccccc12	3.76%
C(=C\c1nn2c(-c3ccncc3)nnc2s1)/c1ccccc1	6.01%
CNC(=O)CN(c1ccc(F)cc1)S(=O)(=O)c1ccc2c(c1)OCCO2	1.65%
Cc1ccc(OCCCCN2CCCC2)cc1	5.35%
COc1cccc(C(=O)Nc2cc(C)c(C)cc2O)c1	4% and -5.13%
Cc1ccc(NC(=O)CN(c2ccc(F)cc2)S(C)(=O)=O)c(C)c1	-1.43%
N#CCCSc1nccn1Cc1ccccc1	-0.239%
COc1cccc(C(=O)NC(C)c2cc3c(cc2Cl)OCCO3)c1 (stereo not drawn)	-3.09%
Cc1ccc(C)c(CN2CCN(c3ccccc3)CC2)c1	6.25%
COc1ccccc1CN1CCN(Cc2ccc3ccccc3c2)CC1	16.7%
CC1CCN(C(=O)c2ccc(COc3cccc4ccccc34)cc2)CC1	3.72%
Cc1nc2ccc(S(=O)(=O)NC(CC(C)C)C(=O)N3CC=C(c4ccccc4)CC3)cc2s1 (stereo not drawn)	-4.97%
CC(=O)C1=C(O)C(=O)N(CO)C1c1ccccc1 (stereo not drawn)	-9.88%
O=C1c2ccc(Br)cc2C(=O)N1c1ccc(Cl)cn1	-4.31%
CCC1CCCCN1CCCNC(=O)c1cc2c(O)nc3ccccc3c2n1C (stereo not drawn)	3.63%
CN(CC(=O)O)S(=O)(=O)c1ccc2nc(O)c(O)nc2c1	-0.458%
O=C(O)c1ccc(CNCCCc2ccccc2)s1	-6.01%
Cc1ccc(NC(=O)c2ccc(Cl)c(Cl)c2)nc1	-2.65%
CC1=C(c2ccc(C)c(C)c2)S(=O)(=O)N=C1N(Cc1ccccc1)C(C)C	6.91%
Cc1ccc2nc(Cl)c(C3CC(c4cccs4)=NN3S(C)(=O)=O)cc2c1 (stereo not drawn)	-5.49%
COc1ccc(SCCc2ccncc2)cc1	4.98%
CC(=O)Nc1cccc(NC(=O)/C=C/c2ccccc2)c1	1.63%

Compound	% Inhibition @ 10 uM
CCOC(=O)C1=C(CS(=O)(=O)c2ccccc2)NC(=O)NC1c1ccc(O)c(OC)c1 (stereo not drawn)	1.24%
CC(C)(C)NC(=O)C(=O)NCc1ccc(Cl)cc1	-4.52%
O=C(c1cccnc1)N1CCN(Cc2c[nH]c3ccccc23)CC1	-3.21%
COc1ccc(CNC(=O)Nc2cn(C)c(=O)c3ccccc23)cc1	0.974%
Cc1ccc2nc(N(CCCN(C)C)C(=O)C3=COCCO3)sc2c1	7.22%
CCOc1cc(C(=O)O/N=C(\N)c2ccccn2)cc(OCC)c1OCC	-4.84%
COc1cc(C(=O)NCc2nnc(SCC(=O)NCc3ccc(F)cc3)o2)cc(OC)c1OC	1.85%
Cc1c2cnn(CC(=O)NC3CCCC(C)C3C)c(=O)c2c(C)n1Cc1ccc(Cl)cc1 (stereo not drawn)	-5.81%
CC(=O)N1CCN(C2CCSC2)CC1 (stereo not drawn)	4.54%
CCOC(=O)N1CCN(C(=O)CSc2nnc(Cc3ccccc3)o2)CC1	2.42%
COc1ccc(CNC(=O)c2cc3c(O)nc4ccccc4c3s2)c(OC)c1	-2.29%
COc1cc(OC)c(OC)cc1CN1CCN(Cc2cccnc2)CC1	2.3%
COc1ccc(-n2nc3c(c2NC(=O)COc2ccc4ccccc4c2)CS(=O)(=O)C3)cc1	7.39%
CCCC(=O)Nc1ccc(S(=O)(=O)Nc2cc(OC)nc(OC)n2)cc1	-3.95%
CCN(Cc1ccccc1)C(=O)C1CCC(C/N=c2/c(N3CCOCC3)c(O)c2=O)CC1 (stereo not drawn)	-0.447%
O=C(O)c1ccc(S(=O)(=O)Cc2ccccc2)cc1	-1.92%
O=C(NCCOCC(F)(F)F)c1sc2ccccc2c1Cl	-6.25%
N=C1/C(=C\c2cccn2CCCOc2ccccc2Cl)C(=O)N=C2SC(N3CCOCC3)=NN12	1.72%
COc1ccccc1/C=C1\C(=O)NC(=O)N(c2ccc(Cl)cc2)C1=O	1.41%
COc1ccc(CN2CCN(c3cccc(C(F)(F)F)c3)CC2)cc1	1.48%
Cc1ccc(NC(=O)c2ccc([N+](=O)[O-])cc2Cl)cc1Cl	0.827%
O=C(NCc1ccc2c(c1)OCO2)c1cnn(-c2ccccc2Cl)c1C1CCNCC1	-8.75%
COc1ccc2[nH]c(SCC(=O)Nc3c(C)cccc3C)nc2c1	1.64%
CCCCNCC(O)COc1cccc(OC)c1 (stereo not drawn)	2.22%
C/N=c1\c(NC(=O)c2ccc3c(c2)OCO3)c(O)oc2ccccc12	-0.426%

Compound	% Inhibition @ 10 uM
CCN1C=C(C(=O)OC)C(c2ccc(OC)cc2OC)C(C(=O)OC)=C1	1.88%
Cc1ccc(NS(=O)(=O)c2cccc(C(=O)Nc3cccc(C(=O)O)c3)c2)cc1	3.25%
CC(C)NS(=O)(=O)c1cccc2cccnc12	3.74%
O=C1N=C(N2CCN(CCO)CC2)S/C1=C\c1ccc(-c2ccccc2)cc1	4.57%
Oc1c2c(nc3nncn13)-c1ccccc1CC21CCCC1	-2.63%
CC1(C)CC(=O)c2cnc(NC3CCCC3)nc2C1	-10.9%
Cc1[nH]c2ccccc2c1CCN1C(=O)OC(C)(C)C1(C)O (stereo not drawn)	8.5%
OC(c1ccccc1)(c1ccc(Br)cc1)C(CN1CCOCC1)c1ccccc1 (stereo not drawn)	-4.07%
COCCCn1c(SCC(=O)NCCc2ccccc2)nc2c(sc3ccccc32)c1=O	8.3%
COc1cc2c(cc1OC)[C@H]1CN3CCc4cc(OC)c(OC)cc4[C@@H]3CN1CC2	-2.56%
CC(=O)Nc1nonc1N1C(=N)S/C(=C\c2ccc(-c3ccc(Cl)c(C(F)(F)F)c3)o2)C1=O	3.81%
COc1ccc(S(=O)(=O)N2CCN(c3ccccc3)CC2)c(Cl)c1Cl	2.42%
O=C(/C=C/c1ccc(Cl)cc1)NC1CCS(=O)(=O)C1 (stereo not drawn)	-3.27%
CC1CCN(C(=O)/C(=C\c2ccccc2)NC(=O)c2ccc(Cl)cc2Cl)CC1	5.98%
CCc1c(O)n(-c2ccccc2)c(=S)[nH]c1=O	0.526%
CCS(=O)(=O)N1CCN(Cc2ccc3c(c2)OCO3)CC1	-4.18%
CCOCCCNC(=O)c1c(NC(=O)c2cc(=O)c3cc(C)ccc3o2)sc2c1CCCC2	-3.24%
COc1cc([N+](=O)[O-])cc(CN(CCc2ccccc2)Cc2ccccc2)c1O	6.32%
CCOCCCNC(=O)C1CCCN(S(=O)(=O)c2ccc(F)cc2)C1 (stereo not drawn)	0.401%
CC(=O)Nc1cccc(NC(=O)c2cccc(Cl)c2)c1	3%
CCCC(C)n1nc(O)c2c1NC(=O)CSC2c1ccc(OC(C)C)cc1 (stereo not drawn)	2.89%
CCOc1ccc(C(=O)N2CCc3cc(OC)c(OC)cc3C2COc2ccc(OC)cc2)cc1 (stereo not drawn)	2.06%
O=C(Nc1ccccc1F)c1ccc(Cl)cc1	5.29%
COc1ccc(CC(=O)Nc2ccc3c(c2)C(=O)N(c2ccccc2)C3=O)cc1	3.1%
Cc1cc(=O)n2nc(N3CCC(C(=O)NCCCc4ccccc4)CC3)sc2n1	-7.54%

Compound	% Inhibition @ 10 uM
COc1ccc(/C=C2\C(=O)NC(=S)N(c3cccc(Cl)c3)C2=O)cc1	4.52%
Cc1c(Cl)cccc1NC(=O)CN(c1ccc2c(c1)OCCO2)S(=O)(=O)c1ccccc1	1.19%
O=C(NC(=S)n1cnc2ccccc21)c1ccco1	-1.29%
CN(C)S(=O)(=O)N1CC=C(c2ccc(F)cc2)CC1	-5.33%
COC(=O)c1ccc(CSc2nnc(CNC(=O)COc3ccc(Cl)cc3)o2)o1	-5.27%
COc1ccc(C(CC(=O)NC2CCCCCC2)N2Cc3ccccc3C2=O)cc1 (stereo not drawn)	-2.01%
COc1ccc(CCNC(=O)C(=O)NCC2CCCO2)cc1 (stereo not drawn)	-7.47%
C=CCOc1ccc(C2c3c(oc4ccc(C)cc4c3=O)C(=O)N2c2ccccn2)cc1OC (stereo not drawn)	-5%
COc1ccc(N2C(=O)C3C4C=CC(C4)C3C2=O)c(OC)c1 (stereo not drawn)	3.05%
CCN(Cc1ccccc1)C1CCN(C)CC1	-0.414%
Cn1cc(Br)c(C(=O)N2N=C3CCCCC3C2(O)C(F)(F)F)n1 (stereo not drawn)	1.15%
Cc1ccc(-c2cc(C(F)F)n3ncc(C(=O)N4CCc5ccccc5C4)c3n2)cc1	0.778%
O=C(c1ccccc1F)N1CCN(C/C=C/c2ccccc2)CC1	-1.98%
CC(=O)Nc1ccccc1SCC(=O)Nc1ccc(Cl)cc1Cl	1.17%
COc1ccc(CC(=O)Nc2cc(Cl)ccc2C(=O)O)cc1	-3.85%
Cc1cc(OCC(=O)Nc2ccc(S(=O)(=O)N3CCOCC3)cc2)cc(C)c1Cl	-11.5%
Cc1ccc2c(Cl)c(C(=O)N3CCCC3)sc2c1	5.04%
CCOC(=O)N1CCN(C(=O)c2c(C)nn(-c3ccc(C)cc3)c2-n2cccc2)CC1	-3.36%
Cc1[nH]c2ccccc2c1C(=O)CSc1nc2ccccc2o1	-5.11%
CCc1ccc2nc3nc(C)cc(C)c3c(O)c2c1	-1.52%
COc1ccc(C2C=C(c3ccc(F)cc3)Nc3nc4ccccc4n32)c(OC)c1 (stereo not drawn)	1.73%
CCOC(=O)c1oc2c(CN3CCCCC3C)c(O)ccc2c(=O)c1-c1ccccc1OC (stereo not drawn)	2.31%
Brc1ccc2[nH]c3c(c2c1)CCCC3NCc1ccccc1 (stereo not drawn)	5.77%
O=C1NCCN/C1=C\C(=O)c1ccc(Br)cc1	-2.55%
